Results published in PubChem BioAssay AID1508624 (National Center for Advancing Translational Sciences (NCATS), 2021).
The campaign covered roughly 48,000 compounds. About 120 (0.25%) were called active. About 4% were inconclusive and are not listed. The call rests on the fitted dose curve; in most records, active means well fitted activation curve with a large enough effect; inconclusive means small, poorly fitted or top-dose-only effect, or another doubt; inactive means no such curve, though single readings can be large or run the other way. This is one part of the list.

Test: Primary qHTS for Identification of Small Molecule Activators of Huntingtin-Antisense Promoter Activity; further: nearly all actives have a fitted effect of over 55% in size
Conditions: HEK293 HTT-AS promoter firefly luciferase reporter, 24 h; series mostly up to 57.5 µM; activity change, positive = activation: at the top concentration
Summary of the method: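 HEK293 cells carrying firefly luciferase reporters were seeded at 2,500 per well in Opti-MEM and cultured for 24 h. They were then treated with compounds at up to 57.5 uM final for 24 h at 37 degrees C before Dual-Glo luminescence readout.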

Activity change, positive = activation, inactive:
Cc1c2cnn(CC(=O)N3CCCCC3)c(=O)c2c(C)n1Cc1ccc(Cl)cc1 -18.4%, CCc1ccc(C2N3CC4(C)CN2CC(c2ccccc2)(C3)C4=O)cc1 (stereo not given) 0.345%, CCOC(=O)N1CCN([N+]([O-])=NOc2ccc([N+](=O)[O-])cc2C#N)CC1 -35.1%, CCn1cc(C(=O)NCc2ccccc2)c(=O)c2cc(S(=O)(=O)N3CCOCC3)ccc21 -14.9%, COC(=O)C1=C(C)NC(=O)NC1c1cn(-c2ccccc2)nc1-c1ccc(OC)c(Cl)c1 (stereo not given) -26.2%, CCOc1ccc(CNC(=O)CN2C(=O)CSc3ccc(S(=O)(=O)N4CCOCC4)cc32)cc1OC -4.04%, CN(C)CCOC(c1ccccc1)c1ccc(Br)cc1 (stereo not given) -13.6%, Cn1c(=O)cc(OCC(=O)N2CCN(c3ccccc3F)CC2)c2ccccc21 -6.59%, O=C(CCCCn1c(=O)c2ccccc2n(Cc2ccccc2F)c1=O)NCc1ccc2c(c1)OCO2 -8.73%, Cc1cc2oc(C(=O)N(Cc3ccc(N(C)C)cc3)CC3CCCO3)c(C)c2cc1C (stereo not given) -20.3%, O=C(NCc1ccc(Cl)cc1)C1(c2cccs2)CCOCC1 -16.7%, CCC1=Nc2cc(C(=O)NCCCOC(C)C)ccc2Sc2ccc(C)cc21 -38.7%, COC(=O)C1=C(C)NC(C)=C(C(=O)OCCCN2CCC(c3ccccc3)(c3ccccc3)CC2)C1c1cccc([N+](=O)[O-])c1 (stereo not given), CCN1CCc2c(sc(NC(=O)CSc3ccccc3)c2-c2nc3ccccc3s2)C1 -23.9%, CC(=O)c1cccc(Nc2cc(C)nc3nc(-c4ccccc4C)nn23)c1 -16.1%, Cc1ccc(CNC(=O)C2CCCN(c3nc4c(C)cc(C)cc4s3)C2)cc1 (stereo not given) 21.3%, COC(=O)c1ccccc1NC(=O)CCn1nc(C)c2c(C)n(-c3ccccc3)nc2c1=O 13.2%, Cc1ccc(OCCSc2nc3ccccc3n2CC(=O)N2CCCCC2)cc1C -30%, O=C(Nc1ccc(NC(=O)c2cccs2)cc1)c1ccc(Cl)cc1 -9.3%, COC(=O)c1ccccc1NC(=O)Cn1ncc2c(C)n(Cc3ccc(F)cc3)c(C)c2c1=O -18.3%, CCOc1cccc2sc(NC(=O)c3ccc(S(=O)(=O)N4CCc5ccccc54)cc3)nc12 -15.9%, CCc1cccc(C)c1NC(=O)C(CC)Sc1nc2ccncc2[nH]1 (stereo not given) -14.2%, CCCN1CCN(CC2=C(C(=O)OCC)C(c3cccc(OC)c3OC)NC(=O)N2)CC1 (stereo not given) 6.33%, CCCCc1nn2c(=O)cc(COC(=O)c3ccc(NC(=O)c4cccc(OC)c4)cc3)nc2s1 -5.76%, Cc1ccc(NC(=O)N2CCc3c(sc4c3CCCC4)C2c2ccccc2)cc1F (stereo not given) 22.4%, CSc1ncc(C(=O)NCc2ccccc2Cl)c(C(F)(F)F)n1 -18%, COc1ccc(CN2CCN(c3ncnc4sc5c(c34)CCCC5)CC2)cc1F -49%, CCCCN(C)C(=O)c1ccc2c(c1)N(Cc1cccc(Cl)c1)C(=O)c1ccccc1S2=O (stereo not given) -37.4%, CCOC(=O)CSc1nc2cc3c(cc2c(=O)n1CCCCCC(=O)NCc1ccc2c(c1)OCO2)OCO3 -7.22%, Cc1cc(C)cc(NC(=O)N2CCN(C)c3ncccc32)c1 -9.74%, COc1cc(C2Nc3ccccc3-c3nnc(SCc4ccc(Cl)cc4)nc3O2)ccc1OCC(=O)O (stereo not given) 11.5% [at 11.5 µM, percent change from vehicle, -100% = no light], Cc1ccc2c(CC(=O)Nc3ccc(S(=O)(=O)Nc4nc(C)cc(C)n4)cc3)coc2c1 -17.4%, COC(=O)c1ccc(NC(=O)c2nn(C)c3c2COc2ccccc2-3)cc1 1.74%, CCOc1ccc(OCC(=O)NCCS(=O)(=O)N2CCN(c3ccc(OC)cc3)CC2)cc1 3.67%, Cc1ccc(NC(=O)Cn2c(=O)n(CCc3ccccc3)c(=O)c3sc4ccccc4c32)cc1C 3.32%, COc1ccccc1CNS(=O)(=O)c1cc(-c2cc(C)no2)ccc1C -28%, Cc1nn(CCCC(=O)NCCc2ccc(Cl)cc2)c(=O)c2nn(-c3ccccc3)c(C)c12 -15.2%, O=C(NCc1cccc(Cl)c1)c1oc(=O)c2ccccc2c1-c1ccccc1 -13.3%, CCn1c(=O)c(C(=O)Nc2cc(OC)c(OC)c(OC)c2)nc2ccccc21 6.81%, COc1ccc(C2CC(=O)c3cc(-c4nc(-c5cccc([N+](=O)[O-])c5)cs4)c(=O)n(-c4ccccc4C)c3C2)cc1 (stereo not given) -17.1%, O=C(NCc1ccccc1F)c1cccc(NC(=O)N2CCSc3ncccc32)c1 -12.9%, CCN(CC)CCOC(=O)c1ccc(N)cc1 -3.42%, O=C(COc1ccccc1)NCCc1csc(-c2ccc(F)cc2)n1 -14.4%, CC1(c2ccccc2)OC(C(=O)O)=CC1=O (stereo not given) -5.58%, CN(C(=O)Cn1c(=O)n(Cc2ccc(C(=O)NCc3ccc4c(c3)OCO4)cc2)c(=O)c2ccccc21)c1ccccc1 -21.5%, COc1ccc(CNC(=O)CCc2nc3cccnc3n2Cc2ccc(OC)cc2)cc1 -9.22%, Cc1cccc(C)c1NC(=O)CN(CC(=O)O)CC(=O)O -1.88%, CCCCOc1ccc(Cn2c(=O)oc3ccccc32)cc1 -5.4%, O=C(Cn1cc(S(=O)(=O)Cc2cccc(Cl)c2)c2ccccc21)Nc1ccc(F)c(Cl)c1 -43.8%, Cc1ccccc1Cc1c(C)nc2c(-c3ccccc3)c(C)[nH]n2c1=O -46.3%, Cn1c2ccccc2c2c(C(=O)N3CCN(c4cccc(C(F)(F)F)c4)CC3)cn(C3CCCCC3)c(=O)c21 -25.9%, Cc1ccc(-c2cn3nc(N4CCC(C(=O)Nc5ccccc5C)CC4)sc3n2)cc1 27.4%, CCOc1ccccc1CNC(=O)C1CCN(Cc2cc3ccccc3n2Cc2ccccc2)CC1 -20.5%, Cc1ccc2oc(C(=O)Nc3ccc(S(=O)(=O)Nc4ncccn4)cc3)cc(=O)c2c1 16.3% [at 11.5 µM, percent change from vehicle, -100% = no light], CN(C)S(=O)(=O)N(CC(=O)NCCSc1ccc(Cl)cc1)c1ccccc1 -19.3%, CCC(C(=O)Nc1cc(OC)ccc1OC)n1nc(-c2ccccc2)c2c(c1=O)CCCC2 (stereo not given) -45.7%, COc1cc2nc(NC(=O)c3ccc(S(=O)(=O)N4CCCC4)cc3)sc2cc1OC -16.2%, O=C(COCc1cc(-c2ccc3c(c2)OCO3)on1)N1CCN(c2cccc(C(F)(F)F)c2)CC1 -21.1%, CCCS(=O)(=O)c1nc(S(=O)(=O)c2ccc(C)cc2)c(NC(C)c2ccccc2)s1 (stereo not given) -19.2%, Cc1cc(C)c2oc(C(=O)Nc3nc4ccc(Cl)cc4s3)cc(=O)c2c1 -12%, Cc1cccc(Cn2c(SCc3ccc(C(=O)NCc4ccccc4F)cc3)nc3cccnc32)c1 -28.1%, Cc1ccc(-n2ccnc(NCc3cccs3)c2=O)cc1C -10.4%, COc1cccc(NS(=O)(=O)c2ccc3[nH]cc(C(=O)NCCc4ccc(C)cc4)c(=O)c3c2)c1 -35.7%, CN1C(C(=O)NC(C)(C)C)=CC(c2ccc3c(c2)OCO3)=NS1(=O)=O -16%, COc1ccccc1C(=O)NCCc1csc(-c2ccc(C(F)(F)F)cc2)n1 -37.5%, COc1cc(NC(=O)Cn2c(=O)n(CC3CCCO3)c(=O)c3cc(OC)c(OC)cc32)cc(OC)c1 (stereo not given) -12.7%, CCOCCc1nn2c(=O)cc(COC(=O)c3ccc(NC(=O)c4ccc(F)cc4)cc3)nc2s1 -14.1%, CCc1ccc(C2CC(=O)N(c3cccc(C(F)(F)F)c3)C3=C2C(=O)OC3)cc1 (stereo not given) -29.1%, Cc1ccc(C)c(NC2=C(c3ccc(C(F)(F)F)cc3)C(=O)c3ccccc32)c1 -24.8%, CC[C@H](C)C(=O)O[C@H]1C[C@@H](C)C=C2C=C[C@H](C)[C@H](CC[C@@H]3C[C@@H](O)CC(=O)O3)[C@H]21, CC(=O)N1CCc2cc(CNC(=O)Nc3ccccc3C(F)(F)F)ccc21 4.86%, Cc1cccc(Cn2nnc3c(=O)[nH]c(C4CCCN(C(=O)c5ccc(C(C)(C)C)cc5)C4)nc32)c1 (stereo not given) -32.6%, COc1ccc2c(CNC3CCC(C)CC3)c(C(=O)O)n(Cc3ccccc3)c2c1 (stereo not given) -23%, Clc1ccc(C(Cn2ccnc2)OCc2ccc(Sc3ccccc3)cc2)c(Cl)c1 (stereo not given), CN(C(=O)NCc1noc2ccccc12)c1cccc(Cl)c1 -13.5%, COc1ccccc1NC(=O)C1=C(C)Nc2nc(SCc3ccccc3Cl)nn2C1c1cccnc1 (stereo not given) -6.77%, CCCN1C(C(=O)c2ccccc2)=C(OC(=O)C(C)(C)C)c2ccccc2S1(=O)=O -39.9%, Cc1ccc(NC(=O)CN2CCN(C3CCCCC3)C(=O)C2=O)cc1C 6.08%, CCOC(=O)C1CCN(C(=O)Cn2nc(CC)n3c(cc4occc43)c2=O)CC1 -9.8%, Cc1cc(Cl)ccc1NS(=O)(=O)c1cc2[nH]c(=O)c(=O)[nH]c2cc1C -14.4%, Cc1ccc(-n2c(=O)[nH]c3sc4c(c3c2=O)CCNC4)cc1C -14.9%, COc1ccc(CN2C(=O)c3ccccc3C2C(=O)NC2CCCCCC2)c(OC)c1 (stereo not given) -41.8%, CCC(=O)N1CCc2cc(S(=O)(=O)NCCC(=O)Nc3cccc(SC)c3)ccc21 0.275%, O=C(COc1ccccc1F)Nc1ccc2nc(SCc3ccccc3)sc2c1 10.1%, COc1ccc2oc(=O)c(-c3nc4ccc(C)cc4[nH]3)cc2c1 7.76%, Cc1ccc(-n2ncc(C(=O)N3CCN(c4cccc(C)c4C)CC3)c2C2CCNCC2)c(C)c1 -9.98%, CCOC(=O)c1cc(-c2ccc(F)cc2)n(CCC(=O)NCc2ccc(C)cc2)c1C -28.9%, COc1ccc(Br)cc1CC1C(=O)Nc2ccccc21 (stereo not given) -51.3%, Cc1ccc(Cl)cc1N1CCN(C(=O)c2cn(C)c3ccc(S(=O)(=O)N4CCCC4)cc3c2=O)CC1 4.3% [at 11.5 µM, percent change from vehicle, -100% = no light], CCOc1ccc(-n2ccnc2SCC(=O)Nc2ccc(OC)cc2OC)cc1 -18.9%
